In PubChem BioAssay AID488969 (Vanderbilt High Throughput Screening Facility, 2010):
In all, about 110,000 compounds were measured (“z-score”: median about -0.1, highest 2% from about 2 on). The list shows a part of the results.

target: Metabotropic glutamate receptor 8 (Rattus norvegicus) (UniProt P70579); assay: mGluR8 Gi/Go-coupled signaling modulation – cell-based, rat, thallium flux, HTS, primary screen (AID 488969); conditions: HEK293 rat mGluR8, GIRK (G protein-gated inwardly rectifying potassium channel) thallium flux, FluoZin2; at 10 µM; stronger effect = higher value; submaximal glutamate (EC20) added with thallium
UniProt P70579, sequence (P70579 whole entry, looked up): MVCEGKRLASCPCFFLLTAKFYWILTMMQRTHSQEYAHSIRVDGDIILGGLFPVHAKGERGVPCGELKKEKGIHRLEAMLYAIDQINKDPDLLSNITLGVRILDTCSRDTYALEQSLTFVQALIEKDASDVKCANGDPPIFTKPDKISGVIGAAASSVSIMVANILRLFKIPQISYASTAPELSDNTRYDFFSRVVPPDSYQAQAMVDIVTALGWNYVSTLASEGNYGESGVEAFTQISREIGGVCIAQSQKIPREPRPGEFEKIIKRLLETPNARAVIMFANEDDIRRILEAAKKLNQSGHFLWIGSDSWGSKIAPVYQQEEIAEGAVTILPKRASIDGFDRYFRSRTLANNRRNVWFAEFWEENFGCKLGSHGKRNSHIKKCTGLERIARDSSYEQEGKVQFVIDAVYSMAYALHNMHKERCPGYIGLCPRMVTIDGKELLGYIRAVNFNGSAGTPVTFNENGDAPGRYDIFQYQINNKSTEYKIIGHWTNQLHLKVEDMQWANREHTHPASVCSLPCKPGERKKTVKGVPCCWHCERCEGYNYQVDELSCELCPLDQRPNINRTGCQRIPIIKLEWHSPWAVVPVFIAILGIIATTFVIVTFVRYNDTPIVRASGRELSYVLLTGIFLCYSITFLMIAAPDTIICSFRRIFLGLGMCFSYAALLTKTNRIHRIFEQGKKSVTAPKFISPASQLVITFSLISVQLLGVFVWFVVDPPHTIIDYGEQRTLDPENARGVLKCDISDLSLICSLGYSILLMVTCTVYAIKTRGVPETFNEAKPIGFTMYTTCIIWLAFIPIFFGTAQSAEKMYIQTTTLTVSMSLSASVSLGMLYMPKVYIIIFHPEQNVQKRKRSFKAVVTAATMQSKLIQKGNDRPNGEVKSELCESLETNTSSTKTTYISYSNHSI

SMILES | z-score
CN1C(=O)/C(=C/c2ccccc2OCc2ccccc2F)NC1=S | 0.0517
CCNc1ccc(C(=O)OCC)cc1NC(=O)c1cccc(S(=O)(=O)N(C)c2ccccc2)c1 | 0.33
O=C(Nc1ccc(Br)cc1F)C1CCCN(S(=O)(=O)c2cnc[nH]2)C1 (stereo not given) | 0.156
COc1ccc(Oc2nc(C)cc(C)c2S(C)(=O)=O)cc1 | 0.0238
CCOC(=O)C1CCN(S(=O)(=O)c2cccc(-c3cn4cc(Cl)ccc4n3)c2)CC1 | -0.273
Cn1ccnc1SCC(=O)c1ccc(Br)cc1 | 0.181
O=C(CN1CCCCCC1)Nc1cccc(Br)c1 | 0.334
Nc1[nH]c(N=NC(=O)c2ccc(F)cc2)c2ccccc12 | -0.162
COc1cc(C(=O)Nc2ccc([N+](=O)[O-])cn2)cc(OC)c1OC | -0.0414
Cc1ccc(C)c(Cn2nnc3c(=O)[nH]c(C(=O)NCC4CCCO4)nc32)c1 (stereo not given) | -1.02
Cc1ccc(NC2=C(Cl)C(=O)N(C3CCCCC3)C2=O)cc1 | 0.222
COc1ccc(-n2c(SCC(=O)Nc3sc4c(c3C#N)CCCC4)nnc2-c2ccc(O)cc2)cc1 | -0.386
CS(=O)(=O)c1ccc(Cl)c(NC(=O)c2cccc(Br)c2)c1 | -0.236
O=C(Oc1ccc(Cl)c2ccccc12)N1CCCCC1 | -0.501
CCCCCCCCNC(=O)c1cccnc1SCC(=O)Nc1ccc(OC)cc1OC | -0.0737
Cc1ccc(NC(=O)CCn2cccc2)cc1Cl | -0.079
O=C(Nc1cccnc1)c1cc(F)cc(F)c1 | -0.0565
Cc1cc(C)cc(OCc2nc3ncc(Br)cc3[nH]2)c1 | -0.251
CC(C)OC(=O)/C(=C\c1cccc2ccccc12)NC(=O)c1ccccc1 | -0.393
COc1ccc(C2=NCC(CSc3nnnn3C)S2)cc1 (stereo not given) | 0.722

SMILES | z-score
Cc1ccc(N2CCN(CC(O)COC3CCCCC3)CC2)cc1 (stereo not given) | -1.49
Cc1ccc(SCc2cc(=O)n3ccsc3n2)c(C)c1 | -0.245
Cc1ccc(Cn2c(=N)n(CC(O)c3ccco3)c3ccccc32)cc1 (stereo not given) | 1.09
O=C(c1ccc(S(=O)(=O)N2CCOCC2)cc1)N(c1ccccc1)C1C=CS(=O)(=O)C1 (stereo not given) | 0.344
CCOc1cccc2c1OC1(C)CC2NC(=O)N1c1cccc(F)c1 (stereo not given) | 0.403
CCC(=O)c1ccc(-c2ccccc2)cc1 | 0.149
O=C(COc1ccc([N+](=O)[O-])cc1)Nc1ccc(N2CCCC2)cc1 | -0.0533
Clc1cccc(OCCn2cncn2)c1Cl | -0.265
O=C(CN1c2cccc3cccc(c23)S1(=O)=O)NCc1ccc2c(c1)OCO2 | 0.00783
O=C(O)CCCN1C(=O)NC2NC(=O)NC21 (stereo not given) | 0.386
O=C(Oc1cccnc1)c1cc(S(=O)(=O)N2CCCCC2)ccc1Cl | -0.62
Cc1ccc2nc(CSc3nc(C)ccc3C#N)[nH]c2c1 | 0.728
CC(O)CN1C(=O)C(CC(=O)Nc2ccc(Cl)cc2)SC1=Nc1ccccc1 (stereo not given) | -1.15
O=C(Nc1cc(F)ccc1F)C1CCCO1 (stereo not given) | 0.011
CCOc1ccc(C)cc1S(=O)(=O)N1CCCCC1 | 0.167
CC12COC3(C(=O)Nc4ccc(Cl)cn4)CC1CCC32C (stereo not given) | -0.154
Cn1c(=O)oc2cc(S(=O)(=O)NCc3ccccn3)ccc21 | -0.159
CCOC(=O)N1CCN(C(=O)CSc2nnc(-c3cccs3)o2)CC1 | -0.0928
O=C(OCc1nc2ccccc2[nH]1)C1CCCCC1 | -0.313
COc1ccc(/C=N/NC(=O)c2c(C)n(C)c3ccc(OC)cc23)c(OC)c1 | -0.271

SMILES | z-score
O=C(Nc1ccc2c(c1)OCO2)N1CCN(c2ncccn2)CC1 | 0.0736
CCSc1nnc(-c2sc3nnc(-c4ccccc4)c(-c4ccccc4)c3c2N)o1 | 1.14
CCOC(=O)C1CCCCN1Cc1cc(OC)ccc1OC (stereo not given) | -0.121
CCCCCc1nc(N)c(C#N)c(-c2ccco2)c1CCCC | 0.201
COc1ccc(NC(=O)c2cccnc2Sc2ccccc2)c(OC)c1 | -0.415
Cc1ccc(C)c(C(=O)CN2C(=O)CCC2=O)c1 | 0.0951
N#Cc1cnn(Cc2ccccc2)c1N | -0.318
Cc1ccccc1OCCNC(=S)Nc1ccccc1 | 0.073
Nn1c(Cc2cccc3ccccc23)nnc1SCCOc1ccc(Br)cc1 | -0.185
Cc1nc2nc(SCC(=O)C(C)(C)C)[nH]c2cc1Br | -0.6
CCOC(=O)CNC(=O)CSc1nnc(-c2ccc(OC)cc2)n1CC | 0.372
CCC(=O)Nc1nnc(-c2ccc(OC)cc2)o1 | -0.442
COc1ccccc1N1CCN(C(=O)/C=C/c2ccc3c(c2)OCO3)CC1 | 0.13
CCOC(=O)C1=C(O)/C(=C/c2ccc(OCC(=O)O)c(OCC)c2)SC1=Nc1ccc(OC)cc1 | -0.217
C/C(=N\NC(=O)c1cc2ccccc2cc1O)c1ccc2c(c1)OCO2 | -0.494
Cc1cc(N/N=C/c2ccc(Cl)cc2Cl)nc(NCc2ccccc2)n1 | -0.221
O=[N+]([O-])c1ccc(-c2csc3[n+]2CCS3)cc1 | -0.167
Cc1ccc(C(=O)NN2C(=O)/C(=C/c3cn(C)c4ccccc34)SC2=S)cc1 | -0.0891
O=C(O)c1ccccc1C(=O)N(Cc1ccccc1)Cc1ccccc1 | -0.611
CN(C(=O)COC(=O)c1cccnc1Nc1ccccc1F)C1CCS(=O)(=O)C1 (stereo not given) | -0.153
